In ChEMBL document CHEMBL4888484, “Replenishing the malaria drug discovery pipeline: Screening and hit evaluation of the MMV Hit Generation Library 1 (HGL1) against asexual blood stage Plasmodium falciparum ,using a nano luciferase reporter read-out” (2022):
Among all 150,000 compounds or so, about 540 (0.36%) showed an effect of 50% or more. This is one part of the list.

system: Plasmodium falciparum; assay: Primary screen in NF54 nanoGlo assay, in single point, at 2uM, 72h; a lower Z score goes with more inhibition; format: functional, Erythrocyte; conditions: timepoint 72 hour

Row | SMILES | % Inhibition | Z score
1 | Cc1noc(C)c1S(=O)(=O)N1CC[C@H](c2noc(-c3ccncc3)n2)C1 | -8% | 0.98
2 | Cc1cc(S(=O)(=O)n2c(/C=C/c3ccccc3)nc3ccccc32)ccc1F | 5% | -0.62
3 | Cc1ccccc1N1CCN(c2ncccc2CNCc2ccccn2)CC1 | -3% | 0.65
4 | O=C(c1cnn2c1CCC2)N1CCc2ncccc21 | -8% | 1.53
5 | CCCC(=O)N1CCCN(c2nc(Cc3ccc(C)cc3)nc3c2c(C)nn3-c2ccc(F)cc2)CC1 | 8% | -1.12
6 | Cc1sc(CCNCc2cnn(C)c2)nc1-c1ccccc1 | -10% | 1.05
7 | Cc1nn(C(F)F)c(C)c1S(=O)(=O)NC1CCCCCC1 | 7% | -0.98
8 | Cc1cnccc1CN(C)c1cc([C@H]2CCOC2)nc(NCCO)n1 | -14% | 2.77
9 | COc1cccc(CN2CC3(CCN(c4ccncc4)CC3)CC2=O)c1 | -1% | 0.12
10 | O=C(CC[C@H]1CCCO1)N1CCC(c2ccsc2)CC1 | -3% | 0.64
11 | Cc1cc(CN2C(=O)N[C@]3(CCc4ccccc4C3)C2=O)nc(C)n1 | 1% | -0.14
12 | CCC(=O)c1cccc(S(=O)(=O)Nc2ncc(-c3cncc(F)c3)cn2)c1 | -12% | 2.33
13 | COc1ccc(NC(=O)C2(N(Cc3nc(-c4ccccc4)cs3)C(=O)Cn3nnc4ccccc43)CCCCC2)cc1 | 55% | -6.2
14 | CCc1nc(C)c([C@H]2CN(C)C[C@@H]2C(=O)NCc2oc3ccccc3c2C)[nH]1 | 0% | -0.06
15 | Cc1cc(C(=O)CN2CCC[C@H]2c2nncn2C)c(C)[nH]1 | 1% | -0.2
16 | CCCC(=O)N1CCC[C@@]2(CCC(=O)N(CCc3c[nH]cn3)C2)C1 | 12% | -1.57
17 | Cc1cc2c(cnc3ncnn32)c(=O)n1NC(=O)c1ccncc1 | -8% | 1.04
18 | C[C@H](NC(=O)c1nccn1C)c1ccc(S(C)(=O)=O)c(F)c1 | -5% | 0.89
19 | Cn1cc(-c2ccc3c(n2)N(C(=O)C2CC4C=CC2C4)CCC3)cn1 (centres undefined) | -11% | 2.09
20 | CCNC(=O)N1CCC(c2nnc(CN3CCCCCC3)n2C)CC1 | -9% | 1.19
21 | CC(=O)O[C@H](c1ccccc1)c1nc(C2CCN(C(=O)C(C)(C)C)CC2)no1 | -5% | 0.67
22 | CC(C)(NC(=O)c1cc(=O)[nH]c(C2CC2)n1)[C@H](O)C(F)(F)F | -30% | 3.22
23 | CN(CC(=O)N1CCN(c2ncccn2)CC1)C(=O)c1cccs1 | -4% | 0.69
24 | Cc1ccc(NC(=O)CN2C(=O)CCCc3cc(S(=O)(=O)N4CCC(C)CC4)ccc32)cc1C | -8% | 1.09
25 | O=S(=O)(Nc1ccc(C(F)(F)F)cn1)c1ccc2c(c1)OCCO2 | -18% | 2.35
26 | Cc1cccc(C[C@@H](CO)NC(=O)c2n[nH]c3ccccc3c2=O)c1 | -7% | 0.93

Row | SMILES | % Inhibition | Z score
27 | Cc1noc(C)c1CCC(=O)N1CC2CC1C2NC(=O)C1(C)CCOCC1 (centres undefined) | 1% | -0.16
28 | CN(C(=O)[C@H](N)c1ccccc1)C1CC1 | 0% | -0.01
29 | COc1ccsc1S(=O)(=O)N1CCC2(CCN(C)CC2)C1 | -4% | 0.41
30 | C#CCCC1(CCC(=O)N2CCC3C(C2)C3(F)F)N=N1 (centres undefined) | 0% | 0.03
31 | O=C([C@H]1CCCN(c2nnc3c(Cl)cccn23)C1)N1CCN(c2ccccc2)CC1 | 11% | -1.25
32 | O=C(c1cccc(N2C(=O)CCS2(=O)=O)c1)N1CCN(Cc2ccccc2)CC1 | -8% | 1.02
33 | O=C(O)c1cc2cc(Cl)cc(-c3cc(NCCO)nc4[nH]ccc34)c2o1 | -7% | 1.24
34 | Cn1nccc1[C@@H]1CCCN1C(=O)Nc1cnn(-c2ccncc2)c1 | -2% | 0.31
35 | O=C(c1c(F)cccc1F)N1CC(n2nccn2)C1 | -8% | 0.95
36 | CS(=O)(=O)c1ccc(-c2c[nH]c([C@@H]3COCCN3C3CCC3)n2)cc1 | -5% | 0.77
37 | Nc1ncc(CN2CC[C@@]3(CCCN(C(=O)CCC4CCCC4)C3)C2)cn1 | 13% | -1.68
38 | CNc1ncccc1C(=O)N[C@H]1CC(=O)N(Cc2cccc(F)c2)C1 | -7% | 0.72
39 | FC(F)(F)c1ccnc(N2CCCOC3CCCC32)n1 (centres undefined) | -6% | 0.5
40 | Cc1ccc(C(=O)Nc2nc3ccccc3[nH]2)o1 | -11% | 1.82
41 | OC1CN(Cc2cc(Cl)ccc2OC[C@@H](O)CN2CCCCCC2)C1 | 9% | -1.34
42 | O=C(c1ccc(-c2nc3cccnc3n2C2CCCCC2)cc1)N1CCCCCC1 | -18% | 2.42
43 | Cc1c(Cl)cccc1NC(=O)c1nc(-n2ccnc2)ncc1Cl | -1% | 0.18
44 | CCc1ccccc1NC(=O)Cn1cc(-c2ccccc2)c2ncn(CCOC)c(=O)c21 | 3% | -0.37
45 | O=C1OC(N2C(=O)CC[C@H]2C(=O)Nc2cccc(C(F)(F)F)c2)c2ccccc21 (some centres undefined) | 5% | -0.6
46 | CCOC1CC(N(C)C(=O)OC(C)(C)C)C12CCCC2 (centres undefined) | 6% | -0.85
47 | Cc1nc(N2CCN(C(=O)c3cc(-c4ccccc4)[nH]n3)CC2)sc1C | -13% | 1.86
48 | Cc1c(NC(=O)N(C)Cc2nnc3n2CCOCC3)cnn1-c1ccccc1F | 1% | -0.1
49 | Cn1nc(C(=O)NCc2ccco2)c(=O)c2ccccc21 | -5% | 0.64
50 | O=C(Cc1cscn1)N1CC(c2ccccc2F)C1 | -8% | 0.84
51 | O=C(C[C@@H]1COC2(C1)CN(C(=O)c1ccc(OC(F)(F)F)cc1)C2)NCc1ccncc1 | -5% | 0.84
52 | Cn1nc(C(=O)NC2CCC(C(F)F)CC2)cc1C1CC1 (centres undefined) | 5% | -0.94
